# Whole data set: some 33,000 sequences, median “E-score (-0.5 to 0.5)” near -0.016, cut for the highest 2% near 0.32. This is one part of the list.
# Target: T1, Stp1 (UniProt B3LFK1)
# T1 sequence: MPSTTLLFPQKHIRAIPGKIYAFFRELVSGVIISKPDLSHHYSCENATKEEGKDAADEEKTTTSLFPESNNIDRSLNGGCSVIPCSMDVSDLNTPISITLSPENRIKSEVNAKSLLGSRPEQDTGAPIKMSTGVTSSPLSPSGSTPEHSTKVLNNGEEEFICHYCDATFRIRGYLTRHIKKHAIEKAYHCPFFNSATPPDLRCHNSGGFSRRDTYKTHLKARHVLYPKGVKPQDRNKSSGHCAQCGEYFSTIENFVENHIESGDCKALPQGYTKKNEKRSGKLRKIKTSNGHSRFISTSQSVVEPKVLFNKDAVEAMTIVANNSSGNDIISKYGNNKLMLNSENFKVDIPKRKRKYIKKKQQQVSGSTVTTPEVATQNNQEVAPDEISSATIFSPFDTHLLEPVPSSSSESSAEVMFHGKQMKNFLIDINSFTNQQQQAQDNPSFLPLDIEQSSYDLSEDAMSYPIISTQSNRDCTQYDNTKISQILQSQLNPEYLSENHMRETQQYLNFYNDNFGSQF
# Test: PBM E-score (8-mer binding enrichment) (E-score (-0.5 to 0.5)); higher = stronger / more preferred TF binding; most listed sequences are background and not binding sites
# Conditions: protein concentration: 200 nM; construct: GST-full length
# Outline: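 Detection of bound protein used fluorescent anti-GST, with scans normalised by masliner. The proteins were GST-tagged yeast transcription factors applied at about 100-200 nM to universal all-10-mer Agilent arrays made double-stranded by primer extension. Each ungapped eight-base word, pooled with its reverse complement, was scored with an E-score from the Universal PBM Analysis Suite.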
row,Sequence,PBM E-score
1,AATATCTA,0.0318
2,ATTAAACA,0.0904
3,GAACCTCC,-0.266
4,CAGCTCCC,-0.246
5,GGTGACGA,-0.138
6,TGATGTAA,0.0511
7,ACCTTGAT,-0.00231
8,GTGGTTCA,0.112
9,TCAACCAA,-0.116
10,AATGAGAC,-0.199
11,CGGGCATA,-0.155
12,AAGCTGCG,-0.105
13,CACTACAC,-0.0919
14,TAACCGGA,-0.155
15,CTTTGGCC,-0.0858
16,CGTTTGGA,0.0802
17,AATGCTTC,0.0234
18,AGTACCAG,-0.0834
19,AGTCTGTG,-0.0713
20,GGACGTGA,-0.216
21,ACCTCTGC,-0.064
22,AATCAGTA,0.163
23,GCGATGTA,0.16
24,ATTACGTA,0.212
25,AGCTCGGG,-0.225

row,Sequence,PBM E-score
1,GTTAGAAC,0.0365
2,GAGTAAAC,-0.0658
3,ATTATGCG,0.188
4,ATAGGATC,-0.00209
5,TGATATCA,-0.0775
6,CTATCACA,-0.0263
7,GCTTACCA,0.198
8,ACTGTGAG,-0.0463
9,ACCTACTA,-0.1
10,TTACCGAA,0.187
11,CTTTTTTA,0.226
12,CAACATAG,-0.0244
13,AGCATTCC,-0.0592
14,CAAACCTA,-0.0113
15,CTCAAATC,-0.18
16,CCACGGCC,0.185
17,AACCAAAG,0.0816
18,GCGTCTCA,0.128
19,AACAGGGC,0.192
20,ACCGCCCA,-0.253
21,AAGAGACA,-0.0418
22,AATGTGGG,-0.108
23,ACTGGCCC,-0.109
24,CCAGGGGG,-0.224
25,CCGGGGTA,-0.288

row,Sequence,PBM E-score
1,GCGAACAA,0.176
2,AAAAATCC,0.0149
3,AAAGAAAC,0.155
4,ATTCTGGC,0.00506
5,GATCCAGC,0.0072
6,CGGGGAAG,-0.0704
7,AGCTATAA,-0.0475
8,CCACGTAC,-0.17
9,CAGCGAGA,-0.209
10,ACGTGAAG,-0.0283
11,ATGAGCAC,-0.132
12,AACCTATT,-0.124
13,AGGGAACG,-0.12
14,ACTGATTG,-0.0948
15,CCCTAAGA,-0.128
16,CTAAAGAC,0.0476
17,CCAAGACC,-0.284
18,CTTTTTCA,0.0193
19,ATCGTTCA,0.0174
20,AGATATAA,0.206
21,GCTAGGGA,-0.271
22,GGCCTAAC,-0.145
23,CAACTGCC,0.123
24,CCATGATC,-0.171
25,ATCCACCC,-0.254

row,Sequence,PBM E-score
1,TCAGTGAA,-0.0946
2,ACCTGGCG,-0.159
3,CTTGCCGC,0.309
4,CTATTCGA,-0.092
5,AGATGCAC,-0.129
6,CAAAGTCA,-0.0611
7,AAAAATGC,0.22
8,GAATTCAA,0.143
9,GGCATCCA,-0.204
10,CCGAGGTA,-0.195
11,GGTTAGCA,-0.193
12,GAAGCTTC,-0.321
13,CGACCCAC,-0.181
14,AGGAAGCC,-0.068
15,AATCTTCA,0.192
16,AGGAGATC,-0.165
17,AGCCTTAA,0.0554
18,AAGGGTAC,-0.0549
19,AACAAGTG,-0.0488
20,GTGGAGCA,-0.152
21,AAGCATTG,-0.0121
22,GAACGGAC,-0.0635
23,TATTTGCA,0.156
24,TGTCCACA,-0.0307
25,AAGTATTG,-0.0369

row,Sequence,PBM E-score
1,CCCAGTTC,-0.149
2,GGAGCCGA,-0.0393
3,GTGTTTGA,0.133
4,ACACTGAT,-0.14
5,GCTCCGAA,-0.0216
6,AGTATTCC,0.00904
7,CAGCACTA,-0.0254
8,CCAGTACC,-0.272
9,GAGTAGTA,0.0408
10,CCTACCCG,-0.0325
11,CACATAGC,-0.0397
12,AGCCGGGG,-0.354
13,ACTATTTA,0.0337
14,ATGGCGCA,0.0846
15,CGATCGAA,0.15
16,AATCCGCG,0.111
17,GCCGAACC,0.166
18,AACAATTA,0.103
19,GGTGGGAC,-0.382
20,AATTCTGT,-0.021
21,AACTATCC,-0.224
22,CATCTGAC,-0.262
23,CTACTTAC,0.0984
24,CAATGGCA,0.166
25,AGCTATGC,-0.096

row,Sequence,PBM E-score
1,CGTTACAC,0.2
2,CTACGCAC,-0.0526
3,ATTACACC,-0.0688
4,CCCTTGGA,-0.0741
5,CCAGCGTA,-0.0807
6,GGTGTCCA,-0.147
7,ACTGAAAG,0.14
8,GCGTTTCA,0.195
9,CTGTTCCC,-0.15
10,CGGGGATC,-0.219
11,GAAATCAC,0.187
12,AAAATTCT,0.0641
13,AGTCGCCG,0.369
14,AAGTTGTC,0.0392
15,CAGCTCGA,-0.163
16,GGTAACAA,0.171
17,CATACTAC,0.0425
18,AGAAACGG,0.278
19,GCTGATTA,0.143
20,GACGCGTA,0.0229
21,AGTACACG,0.131
22,AACCACGT,-0.0804
23,ACTCCTGA,0.0315
24,CCAGTTGA,0.0606
25,GAGAAAGC,0.114

row,Sequence,PBM E-score
1,GATAGATC,-0.135
2,CACTCGGA,0.0142
3,ACCCCGCT,-0.174
4,TACCTGCA,-0.0603
5,ATGTCCCA,-0.161
6,GGATGCTA,-0.149
7,ATTCCAAG,0.0348
8,CCGCTACC,-0.0466
9,ACCCAAAT,0.163
10,GATAGGGA,-0.171
11,AGACACTA,0.0195
12,ATGTGGTC,-0.121
13,TAAGTGCA,0.0837
14,AATCATAA,0.0159
15,CAATTTAG,0.0614
16,TCTCATAA,0.0161
17,CGGGTCGC,-0.0247
18,TAGGTAAA,0.0893
19,TGTAGAAA,0.0375
20,AAGTCTAA,-0.151
21,ATTCGCGG,0.192
22,ACATCTCC,-0.208

# — the supplement of paper PMC3334620
